# Laboratory results as given in the RNAGym collection of RNA variant scans (doi:10.7554/elife.90254).
# Read counts are not given, so values of variants with three or more changes are uncertain.
# B1: OR4K15 (parent)
# chain: GUUAACGGUCAUAGGCCAUGGAAACUAGGAGCACCAUUUCGCUGCCAGUGAAGAAAUGAACAAAGAAAAUCUGGGCCAGGCAGGCAUCAAAAGAAAUAGUCUUGCGCUCAACCAGAAAGUCUGUAAUCAUUUUAAGGGUA
# Variants of: B1
# Assay: self-cleavage, relative activity (ratio to wild type); higher = more cleavage; in vitro, sequencing; the parent is a self-cleaving ribozyme
row,Variant,self-cleavage
1,GUUGACGGUCAUAGGCCAAGGAAACUAGGAGCACCACUUCGCUGCCAGUGAAGAAAUGAACAAAGAAAAUCUGGGCCAGGCAGGCAUCAAAAGAAAUAGUCUUGCGCUCAACCAGAAAGUCUGUAAUCAUUUUAAGGGUA [A4G U19A U37C],0.74
2,GUUGACGGUCAUAGGCCACGGAAACUAGGAGCACCAUUUCGCUGCCAGUGAAGAAAUGAACAAAGAAAUUCUGGGCCAGGCAGGCAUCUAAAGAAAUAGUCUUGCGCUCAACCAGAAAGUCAGUAAUCGUUUUAAGGGUA [A4G U19C A69U A89U U122A A129G],1.47
3,GUUGACGGUCAUAGGCCACGGAAACUAGGAGCACCAUUUCGCUGCCAGUGAAGAAAUGAACAAAGAAAAUCUGGGCCAGGCAGGCAUCAAAAGAAAUAGUCUUGCGCUCAACCAGAAAGUCUGUAAUCAUUUUAUGGGUA [A4G U19C A135U],0.82
4,GUUGACGGUCAUAGGCCAGGGAAACUAGGAGCACCAUUUCGCAGCCAGUGAAGAAAUGAACAAAGAAAAUCUGGGCCAGGCAGGCAUCAAAAGAAAUAGUCUUGCGCUCAACCAGAAAGUCUGUAAUCAUUUUAAGGGUA [A4G U19G U43A],2.41
5,GUUGACGGUCAUAGGCCAUGGAAACCAGGAGCACCAUUUCGCCGCCAGUGAAGAAAUGAACAAAGAAAAUCUGGGCCAGGCAGGCAUCAAAAGAAAUAGUCUUGCGCUCAACCAGAAAGUCUGUAAUCAUUUUAAGGGUA [A4G U26C U43C],0.65
6,GUUGACGGUCAUAGGCCAUGGAAACUAGGAGCACCACUUCGCUGCCAGUGAGGAAAUGAACAAAGAAAAUCUGGGCCAGGCAGGCAUCAAAAGAAAUAGUCUUGCGCUCAACCAGAAAGUCUGUAAUCAUUUUAAGGGUA [A4G U37C A52G],0.68
7,GUUGACGGUCAUAGGCCAUGGAAACUAGGAGCACCACUUCGCUGCCAGUGAAGAAAUGAACAAAGAAAAUCUGGGCCAGGCAGGCAUCAAGAGAAAUAGUCUUGCGCUCUACCAGAAAGUCUGUAAUCAUUUUAAGGGCA [A4G U37C A91G A110U U139C],0.65
8,GUUGACGGUCAUAGGCCAUGGAAACUAGGAGCACCAUCUCGCUGCCAGUGAAGAAAUGAACAAAGAAUAUCUGGGCCAGGCAGGCAUCAAAAGAAAUAGCCUUGCGCUCAACCAGAAAGUCUGUAAUCAUUUUAAGGGUA [A4G U38C A68U U100C],1.23
9,GUUGACGGUCAUAGGCCAUGGAAACUAGGAGCACCAUGUCGCUGCCAGUGAAGAAAUGAUCAAGGAAGAUCUGGGCCAGGCAGGCAUCAAAAGAAAUAGUCCUGCGCUCAACCAGAAAGUCUGUAAUCAUUUUAAGGGUA [A4G U38G A60U A64G A68G U102C],1.16
10,GUUGACGGUCAUAGGCCAUGGAAACUAGGAGCACCAUUACGCUGCCAGUGAAGAAAUGAACAGAGAAAAUCUGGGCCUGGUAGGCAUCAAAAGAAAUAGUCUUGCGCUCAACCAGAAAGUCUGUAAUCAUUUUAAGGGUA [A4G U39A A63G A78U C81U],0.34
11,GUUGACGGUCAUAGGCCAUGGAAACUAGGAGCACCAUUCUGCUGCCAGUGAAGAAAUGAACAAAGAAAAUCUGGGCCAGGCGGGCAUCAAAAGGAAUAGUCUUGCGCUCAACCAGAAAGUCUGUAAUCAUUUUAAGGGUA [A4G U39C C40U A82G A94G],0.84
12,GUUGACGGUCAUAGGCCAUGGAAACUAGGAGCACCAUUUCGCUGCCAGCGAAGAGAUGAACAAAGAAAAUCUGGGCCAGGCGGGCAUCAAAAGAAGUAGUCUUGCGCUCAACCAGAAAGUCUGUAAUCAUUUUAAGGGUA [A4G U49C A55G A82G A96G],0.78
13,GUUGACGGUCAUAGGCCAUGGAAACUAGGAGCACCAUUUCGCUGCCAGCGAAGAAAUGAACAAAGAAAAUCUGGGCCAGGCAGGCAUCAAAAGAAAUAGUCUUGCGCACAGCCAGAAAGUCUGUAAUCAUUUUAAGGGUA [A4G U49C U108A A111G],0.01
14,GUUGACGGUCAUAGGCCAUGGAAACUAGGAGCACCAUUUCGCUGCCAGUGAAGAAAAGAACAAAGAAAAUCUGGGACAGGCAGGCAUCAAAAGAAAUAGUCUUGCGCUCAACCAGAAAGUCUGUAAUCAUUUUAAGGGUA [A4G U57A C76A],0.31
15,GUUGACGGUCAUAGGCCAUGGAAACUAGGAGCACCAUUUCGCUGCCAGUGAAGAAAUGAACAAAGAAAAACUGGGCCAGGCAGGCAUCAAAAGAAAUAGUCUUGCGCUCAACCAGAAAGUCUGUAAUCAUUUCAAGGGUA [A4G U70A U133C],1.41
16,GUUGACGGUCAUAGGCCAUGGAAACUAGGAGCACCAUUUCGCUGCCAGUGAAGAAAUGAACAAAGAAAACCUGGGCCAGGCAGGCGUCAAAAGAAAUAGUCUUUCGCUCAACCAGAAAGUCUGUAAUCAUUUUAAGGGUA [A4G U70C A86G G104U],0.05
17,GUUGACGGUCAUAGGCCAUGGAAACUAGGAGCACCAUUUCGCUGCCAGUGAAGAAAUGAACAAAGAAAACCUGGGCCAGGCAGGCAUCAAAAGAAAUAGUCUUGAGCUCAACCAGAAGGUCUGUAAUCAUUUUAAGGGUA [A4G U70C C105A A118G],0.04
18,GUUGACGGUCAUAGGCCAUGGAAACUAGGAGCACCAUUUCGCUGCCAGUGAAGAAAUGAACAAAGAAAACCUGGGCCAGGCAGGCAUCAAAAGAAAUAGUCUUGCGCUCAACCAGAAAGCCUGUAAUCAUUUUAAGGGUA [A4G U70C U120C],0.16
19,GUUGACGGUCAUAGGCCAUGGAAACUAGGAGCACCAUUUCGCUGCCAGUGAAGAAAUGAACAAAGAAAAGCUGGGCCAGGCAGGCAUCAAAAGAAAUAGUCUUGCGCUCAACCAGAAAGUCAGUAAUCAUUUUAAGGGUA [A4G U70G U122A],0.22
20,GUUGACGGUCAUAGGCCAUGGAAACUAGGAGCACCAUUUCGCUGCCAGUGAAGAAAUGAACAAAGAAAAUCUGGGCCAGGCAGGCAUCAAAAGAAAUAGCCUUGCGCUCAACCAGAAAGUCUAUAAUCAUUUUAAGGGUA [A4G U100C G123A],0.85
21,GUUGACGGUCAUAGGCCAUGGAAACUAGGAGCACCAUUUCGCUGCCAGUGAAGAAAUGAACAAAGAAAAUCUGGGCCAGGCAGGCAUCAAAAGAAAUAGUCUUGCGCCCAGUCAGAAAGUCUGUAUUCAUUUUAAGGGUA [A4G U108C A111G C112U A126U],0.06

row,Variant,self-cleavage
1,GUUGACGGUCAUAGGCCAUGGAAACUAGGAGCACCAUUUCGCUGCCAGUGAAGAAAUGAACAAAGAAAAUCUGGGCCAGGCAGGCAUCAAAAGAAAUAGUCUUGCGCUCAACCAGAAAGUCUGUAAUCACUUUAAGGGCA [A4G U130C U139C],0.63
2,GUUUUCAGUCAUAGGCCAUGGAGACUAGGAGCACCAUUUCGCUGCCAGUGAAGAAAUGGACAAAGAAAAUCUGGGCCAGGCAGGCAUCAAAAGAAAUAGUCUUGCGCCCAACCAGAAAGUCUGUAAUCAUUUUAAGGGUA [A4U A5U G7A A23G A59G U108C],0.11
3,GUUUACGGUCAUAGGCCAUGGAAGCUAGGAGCACCAUUUCGCUGCCAGUGAAGAAAUGAACAAAGAAAAUCUGGGCCAGGCAGGCAUCAGAAGAAGUAGUCUUGCGCUCAACCAGAAAGUCUGUAAUCAUUUUAAGGGUA [A4U A24G A90G A96G],1.44
4,GUUUACGGUCAUAGGCCAUGGAAACUGGGAGCACCAUUUCGCUGCCAGUGAAGAGGUGAACAAAGAAAAUCUGGGCCUGGCAGGCAUCAAAAGAAAUAGUCUUGCGCUCAACCAGAAAGUCUGUAAUCAUUUUAAGGGUA [A4U A27G A55G A56G A78U],0.59
5,GUUUACGGUCAUAGGCCAUGGAAACUAGGAGCACCAUUUCGCUGCCAGUGGAGAAAUGAACAAAGAAAAUCUGGGCCAGGCAGGCAUCAAAAGAAAUAGUCUUGCGCUCAACCGGAAAGUCCGUAAUCAUUUUAGGGGUA [A4U A51G A114G U122C A135G],0
6,GUUUACGGUCAUAGGCCAUGGAAACUAGGAGCACCAUUUCGCUGCCAGUGAAGAAAUGAGCAAAGAAAAUCUGGGCCAGGCAGGCAUCAAAAGAAAUAGUCUCGCGCUCAACCAGAAAGUCUGUAAUCAUUUUAAGGGUA [A4U A60G U103C],0.62
7,GUUUACGGUCAUAGGCCAUGGAAACUAGGAGCACCAUUUCGCUGCCAGUGAAGAAAUGAACUAAGAAAAUCUGGGCCAGGCAGGCAUCAAAAGAAAUAGUCUUGCGCCCAACCAGAAAGUCUGUGAUCAUUCUAAGGGUA [A4U A62U U108C A125G U132C],0.02
8,GUUUACGGUCAUAGGCCAUGGAAACUAGGAGCACCAUUUCGCUGCCAGUGAAGAAAUGAACAAAGAAAAUCUGGGCCAGGCGGGCAUCAAAAGAAAUAGUCUUGCGCUCAACCAGAAAGUCUGUAAUCAUUUUGAGGGUA [A4U A82G A134G],1.6
9,GUUUACGGUCAUAGGCCAUAGAAACUAGGAGCACCAUUUCGCUGCCAGUGAAGAAAUGAACAAAGAAAAUCUGGGCCAGGCAGGCAUCAAAAGAAAUAGUCCUGCGCUCAACCAGAAAGACCGUAAUCAUUUUAAGGGUA [A4U G20A U102C U120A U122C],1.35
10,GUUUACGGACAUAGGCCAAGGAAACUAGGAGCACCAUUUCGCUGCCAGUGAAGAAAUGAACAAAGAAAAUCUGGGCCAGGCAGGCAUCAAAAGAAAUAGUCUUGCGCUCAACCAGAAAGUCUGUAAUCAUUUUAAGGGUA [A4U U9A U19A],0.52
11,GUUUACGGUCAUAGGCCAUGGAAACUAGGAGCACCAUUUCGCUGCCAGUGAAGAAAUGAACAAAGAAAAUCUGGGCCAGGCAGGCAUCAAAAGAAAUAGUCCUGCGCUCAACCAGAAAGUCUGUAAUCAUUUUACGGGUA [A4U U102C A135C],1.53
12,GUUACCGGUCGUAGGCCAUGGAAGCUAGGAGCACCAUUUCGCUGCCAGUGAAGAAAUGAACAAAGAAAAUCUGGGCCAGGCAGGCAACAAAAGAAAUAGUCUUGCGCUCAACCAGAAAGUCUGUAAUCAUUUUAAGGGUA [A5C A11G A24G U87A],1.06
13,GUUACCGGUCGUAGGCCAUGGAAACUAGGGGCACCACUUCGCUGCCAGUGAAGAAAUGAACAAAGAAAAUCUGGGCCAGGCAGGCACCAAAAGAAAUAGUCUUGCGCUCAACCAGAAAGUCUGUAAUCAUCUUAAGGGUA [A5C A11G A30G U37C U87C U131C],1.96
14,GUUACCGGUCGUAGGCCAUGGAAACUAGGAGCACCAUUUCGCUGCCAGUGAAGGAAUGAACAAAGAAAAUCUGGGCCAGGCAGGCACCAAAAGAAAUAGUCUUGCGCUCAACCAGAAAGUCUGUAAUCAUUUUAAGGGUA [A5C A11G A54G U87C],1.54
15,GUUACCGGUCAUAGGCCAUGGGAACUAGGAGCACCAUUUCGUUGCCAGUGAAGAAAUGAACAAAGAAAAUCUGGGCCAGGCAGGCAUCAAAAGAAAUAGUCUUGCGCUCAACCAGAAAGUCUGUAAUCAUUUUAAGGGUA [A5C A22G C42U],0.73
16,GUUACCGGUCAUAGGCCAUGGUAACUAGGAGCACCAUUUCGCUGCCAGUGAAGAAAUGAACAAAGAGAAUCUGGGCCAGGCAGGCAUCAAAAGAAAUAGUCUUGCGCUCAACCUGAAAGUCUGUAAUCAUUUUAAGGGUA [A5C A22U A67G A114U],0.41
17,GUUACCGGUCAUAGGCCAUGGAGACUAGGAGCACCAUUUCGCUGCCAGUGGAGAGAUGAACAAAGAAAAUCUGGGCCAGGCAGGCACCAAAAGAAAUAGUCUUGCGCUCAACCAGAAAGUCUGUAAUCAUUUUAAGGGUA [A5C A23G A51G A55G U87C],1.48
18,GUUACCGGUCAUAGGCCAUGGAAACUAGGAGCACCGUUUCGCUGCCAGUGAAGAAAUGAACAAAGAGAAUCUGGGCCAGGCAGGCACCAAUAGAAAUAGUCUUGCGCUCAACCAGAGAGUCUGUAAUCAUUUUAAGGGUA [A5C A36G A67G U87C A91U A117G],0.07
19,GUUACCGGUCAUAGGCCAUGGAAACUAGGAGCACCAUUUCGCUGCCAGUGGAAAAAUAAACAAAGAAAAUCUGGGCCAGGCAGGCUUCAAAAGAAGUAGUCUUGCGCUCACCCAGGAAGUCUGUAAUCAUUUUAAGGGUA [A5C A51G G53A G58A A86U A96G A111C A116G],0.03
20,GUUACCGGUCAUAGGCCAUGGAAACUAGGAGCACCAUUUCGCUGCCAGUGAGGAAAUGAACAGAGAAAAUCUGGGCCAGGCAGGCAUCAAAAGAAAUAGUCUUGCGCUCAACCAGAAAGUCUGUAAUCAUUUUAAGGGUA [A5C A52G A63G],1.06
